Experiments:
Experiment in all cases: SPR, Biacore 3000; receptor captured on chip, ligand in solution
BMP-9 = biological target: T1, BMP-9 (UniProt Q9UK05 320-429)
T1 construct: the embodiments speak of human BMP9; also called bone morphogenetic protein 9
T1 sequence (looked up): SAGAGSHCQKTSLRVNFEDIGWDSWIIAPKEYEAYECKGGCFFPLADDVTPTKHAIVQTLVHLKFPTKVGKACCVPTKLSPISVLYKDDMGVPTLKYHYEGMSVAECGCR
From the text: (§1) The Biacore 3000 was used to measure the kinetics of the interactions between the ActRIIa variants and the ligands Activin A, Activin B, growth differentiation factor 11 (GDF11), and BMP-9. ActRIIa variants were transiently expressed in HEK293 cells and purified from the conditioned media using Protein-A Sepharose chromatography. The ActRIIa variants were immobilized on the chip (CM4 or CM5) with capture antibodies ([…]) in flow cells 2-4 to ensure proper orientation. Flow cell 1 was used as a reference cell to subtract any nonspecific binding and bulk effects. HBS-EP+ buffer from GE Healthcare™ was used as a running buffer. Each ligand was run in a concentration series at 40 μl/min to avoid mass transport effects. The data was analyzed using Scrubber2 by BioLogic™ Software to calculate the KD of each interaction (Table 5).

Activin B = biological target: T2, Activin B (UniProt P09529 293-407)
T2 construct: the embodiments speak of human activin B
T2 sequence (looked up): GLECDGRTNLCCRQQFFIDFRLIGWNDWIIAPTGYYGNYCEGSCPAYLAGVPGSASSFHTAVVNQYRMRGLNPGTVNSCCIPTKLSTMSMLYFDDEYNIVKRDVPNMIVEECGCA
From the text: as §1

Activin A = biological target: T3, Activin A (UniProt P08476 311-426)
T3 construct: the embodiments speak of human activin A
T3 sequence (looked up): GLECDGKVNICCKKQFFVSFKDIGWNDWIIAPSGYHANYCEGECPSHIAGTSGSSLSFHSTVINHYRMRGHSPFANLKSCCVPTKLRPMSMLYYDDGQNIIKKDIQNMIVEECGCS
From the text: as §1

[1] = biological target: T4, growth differentiation factor 11 (GDF11) (UniProt O95390 299-407)
T4 construct: the embodiments speak of human GDF-11
T4 sequence (looked up): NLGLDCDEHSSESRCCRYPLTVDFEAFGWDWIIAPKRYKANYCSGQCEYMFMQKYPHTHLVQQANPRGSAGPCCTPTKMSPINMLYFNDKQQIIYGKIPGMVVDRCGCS
From the text: as §1

B1: ActRIIa (SEQ ID NO: 73), human ActRIIa, extracellular portion (receptor, not shown: a dimerising Fc or GST)
chain: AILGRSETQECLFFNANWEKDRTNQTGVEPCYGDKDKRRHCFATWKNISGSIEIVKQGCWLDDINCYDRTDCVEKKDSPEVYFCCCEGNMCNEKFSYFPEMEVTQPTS
notes: Expressed in HEK293, purified on Protein-A Sepharose, captured on the chip by anti-mouse antibodies; also called wild-type extracellular ActRIIa
A Kd (BMP-9) of 25 nM, a Kd (Activin B) of 0.373 nM and a Kd (Activin A) of 1 nM were found for B1 in this work. For the same binder, the Kd [1] was 0.081 nM.
